# Source: PubChem BioAssay AID887 (National Center for Advancing Translational Sciences (NCATS), 2007)
# In all, about 74,000 compounds went through this assay and about 1,100 (1.5%) were called active. This list was built around the results that the source calls inconclusive (neither active nor inactive); the mix of calls is not that of the screen. The call rests on the fitted dose curve; in most records, active means well fitted inhibition curve with a large enough effect; inconclusive means small, poorly fitted or top-dose-only effect; inactive means no such curve, though single readings can be large or run the other way. Potencies of inconclusive entries are left out as doubtful fits.
# Molecular target: Polyunsaturated fatty acid lipoxygenase ALOX15 (Homo sapiens) (UniProt P16050)
# Chain of UniProt P16050 (P16050 whole entry, looked up): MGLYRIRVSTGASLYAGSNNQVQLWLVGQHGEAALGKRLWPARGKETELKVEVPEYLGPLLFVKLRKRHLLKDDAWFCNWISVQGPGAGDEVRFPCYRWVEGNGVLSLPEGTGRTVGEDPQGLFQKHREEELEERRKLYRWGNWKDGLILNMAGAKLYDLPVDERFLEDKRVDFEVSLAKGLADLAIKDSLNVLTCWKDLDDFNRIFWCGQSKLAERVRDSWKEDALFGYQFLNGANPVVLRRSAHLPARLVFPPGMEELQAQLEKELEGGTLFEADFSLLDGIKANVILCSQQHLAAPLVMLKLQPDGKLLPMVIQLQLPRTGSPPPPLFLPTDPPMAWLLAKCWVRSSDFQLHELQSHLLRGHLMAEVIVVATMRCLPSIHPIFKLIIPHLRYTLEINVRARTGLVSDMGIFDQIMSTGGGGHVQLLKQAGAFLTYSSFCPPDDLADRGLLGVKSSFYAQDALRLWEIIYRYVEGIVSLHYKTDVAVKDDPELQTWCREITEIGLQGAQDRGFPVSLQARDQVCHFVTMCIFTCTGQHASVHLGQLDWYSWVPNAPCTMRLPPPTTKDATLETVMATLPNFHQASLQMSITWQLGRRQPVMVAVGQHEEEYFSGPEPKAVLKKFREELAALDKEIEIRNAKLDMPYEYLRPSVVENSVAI
# Assay: qHTS Assay for Inhibitors of 15-hLO (15-human lipoxygenase); further: nearly all actives have a fitted effect of over 55% in size
# Settings: purified 15hLO-1, xylenol orange hydroperoxide absorbance; activity change, negative = inhibition: at 57.1 µM (top of the series) unless noted
# Excerpt: Assay Overview: NIH Molecular Libraries Screening Centers Network [MLSCN] NIH Chemical Genomics Center [NCGC] MLSCN Grant: MH081283-01A1 PI Name: Holman, T.R., University of California, Santa Cruz Human lipoxygenase 15hLO-1 is a member of the closely related lipoxygenase family of enzymes which catalyze the site-specific oxidation of arachidonic acid to various hormone precursor molecules and as such is a candidate for drug development in a variety of disease areas, such as cancer and inflammation. Inhibition of 15hLO-1 activity was screened by utilizing arachidonic acid as a substrate. The extent of hydroperoxide product formation was measured by a secondary chromogenic reaction in which xylenol orange (XO, Sigma-Aldrich, cat. number 39,818-7) reacts with the ferric ions produced from the reaction between the hydroperoxide and ferrous ions. The Fe(III)-XO complex is characterized with red-shifted absorbance at 560 nm. A purified preparation of human 15hLO-1 was supplied by Professor Ted Holman, University of California, Santa Cruz.
# Assay Protocol: Buffer: 25 mM Hepes pH 7.5, 0.01% Triton X-100. Reagents/Controls: Buffer in columns 3 and 4 as negative control (no enzyme). Substrate solution: 50 uM arachidonic acid (Sigma-Aldrich, St. Louis, MO) final concentration dispensed throughout the plate. Enzyme: 40 nM 15hLO-1 final concentration in columns 1, 2, 5-48. Column 1 is neutral (100% activity). Column 2 contained pin-transferred titration of NDGA (nordihidroguaiaretic acid, Sigma-Aldrich, N 5023, top concentration 10 mM in DMSO, then 1:2 dilution in duplicate). (Dilution factor: 23 nL into 4 uL.) Chromogenic detection reagent (divalent iron/xylenol orange, Fe-XO): 200 uM xylenol orange plus 300 uM ferrous ammonium sulfate prepared freshly in 50 mM sulfuric acid. Assay Steps: Three uL of enzyme were dispensed to 1536-well Greiner black clear bottom plates. Compounds and controls (23 nL) were transferred via Kalypsys PinTool. The plates were incubated for 15 min at room temperature, and then 1 uL of substrate solution was added to start the reaction. After room temperature incubation for 6 minutes, 4 uL of Fe-XO solution was added to each well followed by a short spin (1000 rpm, 15 sec) and the plates were then incubated for 30 min. The absorbance at 405 and 573 nm were measured using ViewLux (Perkin-Elmer) High-throughput CCD imager and absorbance protocol settings. The 573-to-405 absorbance ratio was used to compute reaction progress.
# On the % scale 0 is the no-effect control and ±100 the full control effect; potency means the concentration at half of the fitted maximal effect; tags describe the fitted curve by direction and shape.
Compound,Potency,"activity change, negative = inhibition"
Cc1cc(C(c2nnnn2Cc2ccccc2)N2CCOCC2)c(C)n1-c1ccc2c(c1)OCO2 (configuration not stated),"inconclusive [inhibitor, single point]",–
Cc1nn2cc(-c3ccccc3)nc2s1,active: 25.1 µM,–
CCCc1ccc(Oc2cn[nH]c2-c2ccc(O)cc2O)cc1,active: 3.16 µM,–
COc1cccc(-c2cc(C(F)(F)F)nc(NCc3ccco3)n2)c1,"inconclusive [inhibitor, single point]",–
N#C/C(C(=O)NCc1ccco1)=C1/SC=C(c2ccccc2)N1c1ccccc1,"inconclusive [inhibitor, partial curve, poor fit]",–
C=CCc1cccc(CNc2nc3ccccc3n2CCN2CCOCC2)c1O,inactive,–
COc1cc(C2C(C(=O)c3ccc(C)o3)=C(O)C(=O)N2c2cc(C)on2)cc(Br)c1O (configuration not stated),"inconclusive [inhibitor, single point]",–
COC(=O)c1ccc2c(c1)N(Cc1nc(-c3cccc(Cl)c3)oc1C)C(=O)C1CCCN21 (configuration not stated),active: 12.6 µM,–
CN(Cc1ccccc1)S(=O)(=O)c1ccc(S(=O)(=O)N2CCN(CCC#N)CC2)cc1,inactive,–
O=C1C2=C(Nc3ccccc3SC2c2ccco2)c2ccccc21 (configuration not stated),"inconclusive [inhibitor, single point]",–
COc1ccc(S(=O)(=O)n2nc(-c3cc(OC)c(OC)c(OC)c3)cc2N)cc1OC,inactive,–
COc1cc(NC(=O)c2ccccc2)c(OC)cc1NC(=O)CN1CCOCC1,"inconclusive [inhibitor, full curve]",–
COc1ccc(-c2csc3c2[N+]2=CCC=C2C3=O)cc1,–,inactive: -2.18% [at 11.4 µM]
COc1cccc(NS(=O)(=O)c2ccc(Br)s2)c1,inactive,–
Cc1ccc2c(c1)cc(C)c1nnc(SCC(=O)NCc3ccco3)n12,inactive,–
Cc1cccc(N2CCN(C(=O)C3CCN(S(=O)(=O)c4cccc5nsnc45)CC3)CC2C)c1 (configuration not stated),inactive,–
c1cncc(-c2nnc(-c3cccnc3)nn2)c1,"inconclusive [inhibitor, single point]",–
COc1ccc2ccccc2c1C1CC(=O)N2CN(C3CCCCC3)CSC2=C1C#N (configuration not stated),"inconclusive [inhibitor, partial curve]",–
Cc1ccc(Cc2c(C)nc3nc(SCC(=O)NCc4ccco4)nn3c2C)cc1,inactive,–
COc1cc(C(=O)NCc2ccc3c(c2)OCO3)ccc1OCc1c(C)noc1C,active: 12.6 µM,–
O=C(NC1CCCCC1)Sc1ccc(Cl)cc1,"inconclusive [inhibitor, partial curve]",–
Cn1c(-c2nc(-c3ccccc3)cs2)nc2ccccc21,"inconclusive [inhibitor, partial curve, poor fit]",–
COCCn1nnnc1CN1CCC(NC(=O)Nc2cccc(OC)c2)CC1,"inconclusive [inhibitor, partial curve]",–
CCCOP(=O)(c1ccc(N(C)C)cc1)C(O)c1ccncc1 (configuration not stated),"inconclusive [inhibitor, single point]",–

Compound,Potency,"activity change, negative = inhibition"
Nc1c(S(=O)(=O)O)cc(S(=O)(=O)O)c2ccc(N=Nc3ccccc3)c(O)c12,–,inactive: 7.86% [at 11.4 µM]
CCCC1C2CN(C(C)C)CC=C2C(C#N)=C(N)C1(C#N)C#N (configuration not stated),"inconclusive [inhibitor, full curve]",–
CCN(CC(=O)NCc1ccc(F)cc1)C(=O)C1CCN(C(=O)Nc2ccccc2)CC1,"inconclusive [inhibitor, single point]",–
CCN1CCc2nc(SCC(=O)Nc3ccc(OC)cc3)c(C#N)cc2C1,"inconclusive [inhibitor, single point]",–
O=C(O)[C@@H]1CCCN[C@H]1C(=O)O,inactive,–
O=C(Nc1sc2c(c1C(=O)NC1CC1)CCCCCC2)c1ccco1,"inconclusive [inhibitor, single point]",–
COc1ccc(CCN2C(=O)CC(Nc3ccc(N4CCOCC4)cc3)C2=O)cc1OC (configuration not stated),"inconclusive [inhibitor, partial curve]",–
COc1cc(/C=C(\C#N)C(=O)c2ccc(O)c(O)c2)cc(I)c1O,active: 1 µM,–
O=C1CC(O)(C(F)F)Oc2ccc3ccccc3c21 (configuration not stated),"inconclusive [inhibitor, single point]",–
O=C(CSc1ccc2nnc(-c3ccccc3)n2n1)N1CCN(c2ccccc2)CC1,inactive,–
Cc1nnc2n(-c3ccc(Cl)cc3)c(=O)c3c4c(sc3n12)CN(C)CC4,inactive,–
O=c1oc2ccccc2c(O)c1/C=N/c1nc(-c2ccc(O)c(O)c2)cs1,"inconclusive [inhibitor, full curve, poor fit]",–
Nc1nc(C2C(=O)CCCC2=O)cs1,"inconclusive [inhibitor, partial curve]",–
Cc1ccc2cc(CN(Cc3ccco3)C(=O)c3ccccc3)c(=O)[nH]c2c1C,inactive,–
COc1ccc(-c2nnc3sc(COc4ccc(C)cc4)nn23)cc1,inactive,–
COc1ccc2c(c1)N(C(=O)CSc1n[nH]c(C)n1)C(C)(C)C=C2C,inactive,–
O=C(COc1ccc(S(=O)(=O)N2CCCC2)cc1)NCCC1=CCCCC1,"inconclusive [inhibitor, single point]",–
O=C(O)c1cc2c(cc1S(=O)(=O)O)[C@H]1[C@@H]([C@H]3[C@H]2[C@@]2(Cl)C(Cl)=C(Cl)[C@]3(Cl)C2(Cl)Cl)[C@]2(Cl)C(Cl)=C(Cl)[C@@]1(Cl)C2(Cl)Cl,active: 5.01 µM,–
O=C(c1ccco1)[C@@H]1[C@@H]2C(=O)N(c3ccccc3)C(=O)[C@@H]2C2c3ccccc3C=CN21 (some centres not stated),"inconclusive [inhibitor, partial curve]",–
COc1ccc2[nH]c(=O)c(CN(Cc3ccccc3OC)Cc3nnnn3CC3CCCO3)cc2c1 (configuration not stated),active: 20 µM,–
C[C@@H](CNC1CCCCC1)OC(=O)c1ccccc1,inactive,–
CC(=O)OC[C@@H]1O[C@H](C/C=N\OC[C@@H](O)[C@H]2O[C@H]3OC(C)(C)O[C@H]3[C@@H]2O)C=C[C@@H]1OC(C)=O,–,inactive: 4.22% [at 11.4 µM]
CSc1ccccc1NC(=O)c1cnccn1,"inconclusive [inhibitor, single point]",–
N#CC1=C(N)SC(N)=C(C#N)C1CCc1ccccc1,"inconclusive [inhibitor, single point]",–

Compound,Potency,"activity change, negative = inhibition"
CCSc1nnc(NC(=O)CN(C)S(=O)(=O)c2ccc(F)cc2)s1,"inconclusive [inhibitor, single point]",–
CCOC(=O)N1CCN(C(=O)c2ccc3c(=O)n(Cc4ccc(Cl)cc4)c(=S)[nH]c3c2)CC1,"inconclusive [inhibitor, partial curve]",–
O=C(OCc1ccc(F)cc1Cl)c1ccccn1,"inconclusive [inhibitor, partial curve]",–
CNc1oc(Cc2cccc3ccccc23)nc1C#N,inactive,–
CC(=O)[C@@H]1[C@@H]2C(=O)N(Cc3ccccc3)C(=O)[C@@H]2C2c3ccccc3C=CN21 (some centres not stated),"inconclusive [inhibitor, single point]",–
CCOC(=O)c1ccc(-n2c(N)c(C(=O)NCc3ccco3)sc2=S)cc1,"inconclusive [inhibitor, single point]",–
CCCOC(=O)C1=C(C)NC2=C(C(=O)CCC2)C1c1cccs1 (configuration not stated),"inconclusive [inhibitor, single point]",–
CCCc1nc2sc3c(c2c(=O)n1N)CCC3,"inconclusive [inhibitor, single point]",–
CCN(CCCNC(=O)CCc1nc(-c2ccc(C)cc2)no1)c1cccc(C)c1,"inconclusive [inhibitor, single point]",–
COC(=O)C/C=C\[C@@H](C)[C@@H](/C=N\O[C@@H](C)CN1CCCCc2nc(C)c(C)cc21)NS(=O)(=O)c1ccc(C)cc1,–,inactive: 18.3% [at 11.4 µM]
CN(C(=O)C1CCOC1)c1nnc(-c2ccccn2)s1 (configuration not stated),inactive,–
Brc1ccc(-c2nn3c(-c4ccco4)nnc3s2)o1,active: 20 µM,–
Cc1ccc(-n2c(N)c(C(=O)N3CCOCC3)sc2=S)cc1,"inconclusive [inhibitor, partial curve]",–
Cc1cc2occ(CC(=O)O)c2cc1C,"inconclusive [inhibitor, full curve]",–
O=C(CCN1CCOCC1)Nc1ccc2c(c1)CCC2,active: 25.1 µM,–
O=C(CCCN1CCC(O)(c2ccc(Cl)cc2)CC1)c1ccc(F)cc1,"inconclusive [inhibitor, single point]",–
C=CCOC(=O)C1=C(C)NC(SC)=C(C#N)C1c1ccc(OCC)cc1 (configuration not stated),"inconclusive [inhibitor, partial curve]",–
CC(C)NC(=O)N1CCCC2(CCN(C(=O)c3cc(C(F)(F)F)cc(C(F)(F)F)c3)CC2)C1,inactive,–
Cn1ccnc1SCc1cn2cc(Br)ccc2n1,inactive,–
COc1ccc2[nH]cc(CCNc3nc(-c4ccccc4OC)nc4ccccc34)c2c1,"inconclusive [inhibitor, single point]",–
O=C1C2C3CCCC3=C3CCCC3C2C(=O)N1c1cccc(Cl)c1 (configuration not stated),active: 10 µM,–
Oc1ccccc1-c1cc(-c2ccc3c(c2)OCCO3)n[nH]1,active: 12.6 µM,–
CCCCS/C(=C(/C#N)C(N)=O)c1cc2c([nH]1)CCCC2,"inconclusive [inhibitor, single point]",–
Cc1ccc(Cn2ncc3c(N4CCN(c5ccccc5C)CC4)ncnc32)cc1,"inconclusive [inhibitor, single point]",–
